Data published in EP4477673A1, “IMMUNOCONJUGATE AND USE THEREOF” (priority 2022, dated 2023).

T1: IL-2Rβ/γ on M07e cells (human, UniProt P14784 27-551; P31785 23-369)
T1 sequence (looked up) 1: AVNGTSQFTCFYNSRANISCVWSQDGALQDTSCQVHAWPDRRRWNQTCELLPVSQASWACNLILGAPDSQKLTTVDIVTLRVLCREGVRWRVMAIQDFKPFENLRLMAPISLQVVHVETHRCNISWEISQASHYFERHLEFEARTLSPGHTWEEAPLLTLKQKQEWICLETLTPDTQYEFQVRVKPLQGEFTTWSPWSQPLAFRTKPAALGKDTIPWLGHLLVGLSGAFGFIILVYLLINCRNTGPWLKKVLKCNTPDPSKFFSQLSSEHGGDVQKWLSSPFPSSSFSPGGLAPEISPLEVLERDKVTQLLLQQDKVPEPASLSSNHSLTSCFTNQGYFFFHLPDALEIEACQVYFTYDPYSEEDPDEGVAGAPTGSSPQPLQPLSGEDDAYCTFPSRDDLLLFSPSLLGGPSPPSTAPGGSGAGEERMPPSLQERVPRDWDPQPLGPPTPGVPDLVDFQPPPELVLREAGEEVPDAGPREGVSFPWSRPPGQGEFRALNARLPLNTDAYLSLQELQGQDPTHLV
T1 sequence (looked up) 2: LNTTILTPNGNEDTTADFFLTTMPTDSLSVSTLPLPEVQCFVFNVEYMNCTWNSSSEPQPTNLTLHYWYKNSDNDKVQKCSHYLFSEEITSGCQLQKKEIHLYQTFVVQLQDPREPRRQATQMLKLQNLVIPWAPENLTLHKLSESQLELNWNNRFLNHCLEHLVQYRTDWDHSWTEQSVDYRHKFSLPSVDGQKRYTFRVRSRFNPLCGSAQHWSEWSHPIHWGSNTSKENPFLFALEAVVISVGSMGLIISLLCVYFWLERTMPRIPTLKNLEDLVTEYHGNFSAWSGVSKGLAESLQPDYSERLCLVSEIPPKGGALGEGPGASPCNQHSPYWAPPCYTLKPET


What was measured:
[1] = molecular target: T1, IL-2Rβ/γ on M07e cells; test: cell-based or functional assay
[2] = molecular target: human PD-1 (human, UniProt Q15116 25-288); test: cell-based or functional assay
Chain of UniProt Q15116 (Q15116 25-288 limits assumed): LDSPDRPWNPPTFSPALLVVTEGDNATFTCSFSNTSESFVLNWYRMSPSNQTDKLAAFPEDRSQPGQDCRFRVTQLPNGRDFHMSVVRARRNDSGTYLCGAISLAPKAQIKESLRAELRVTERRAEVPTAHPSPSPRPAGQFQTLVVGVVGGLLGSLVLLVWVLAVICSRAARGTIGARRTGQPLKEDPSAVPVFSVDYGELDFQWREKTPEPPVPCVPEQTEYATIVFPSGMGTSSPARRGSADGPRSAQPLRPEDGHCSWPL

Binder | M07e proliferation, EC50 [1] | M07e proliferation, Maximal fluorescence value (Max Lum) [1] | M07e-hPD1 proliferation, EC50 [2] | M07e-hPD1 proliferation, Maximal fluorescence value (Max Lum) [2]
A-V91T (Fc fusion) chain 1: EVQLQESGGGLVQPGGSLRLSCTASGLTFSDYSMSWYRQAPGKGRELVAIISGSGVIAHYVDSVKGRFTISRDNSKNTVYLQMRSLTPEDRAVYYCRAVSDWDDYWGQGTQVTVSS[human IgG1 Fc with changes not written out]GGGGSGGGGSGGGGSAPASSSTKKTQLQLEHLLLDLQMILNGINNYKNPKLTEMLTAKFYMPKKATELKHLQCLEEELKPLEEVLNLAQSKNFHLRPRDLISNINTIVLELKGSETTFMCEYADETATIVEFLNRWITFAQSIISTLT chain 2: EVQLQESGGGLVQPGGSLRLSCTASGLTFSDYSMSWYRQAPGKGRELVAIISGSGVIAHYVDSVKGRFTISRDNSKNTVYLQMRSLTPEDRAVYYCRAVSDWDDYWGQGTQVTVSSEPKSSDKTHTCPPCPAPEAAGGPSVFLFPPKPKDTLMISRTPEVTCVVVDVSHEDPEVKFNWYVDGVEVHNAKTKPREEQYNSTYRVVSVLTVLHQDWLNGKEYKCKVSNKALGAPIEKTISKAKGQPREPQVCTLPPSRDELTKNQVSLSCAVKGFYPSDIAVEWESNGQPENNYKTTPPVLDSDGSFFLVSKLTVDKSRWQQGNVFSCSVMHEALHNRFTQKSLSLSP | 84.6 nM | 4.24e+06 Lum | 0.032 nM | 7.02e+06 Lum
C-V91T (Fc fusion) heavy: QVQLVQSGVEVKKPGASVKVSCKASGYTFTNYYMYWVRQAPGQGLEWMGGINPSNGGTNFNEKFKNRVTLTTDSSTTTAYMELKSLQFDDTAVYYCARRDYRFDMGFDYWGQGTTVTVSSASTKGPSVFPLAPSSKSTSGGTAALGCLVKDYFPEPVTVSWNSGALTSGVHTFPAVLQSSGLYSLSSVVTVPSSSLGTQTYICNVNHKPSNTKVDKKV[human IgG1 Fc with changes not written out]GGGGSGGGGSGGGGSAPASSSTKKTQLQLEHLLLDLQMILNGINNYKNPKLTEMLTAKFYMPKKATELKHLQCLEEELKPLEEVLNLAQSKNFHLRPRDLISNINTIVLELKGSETTFMCEYADETATIVEFLNRWITFAQSIISTLT EVQLQESGGGLVQPGGSLRLSCTASGLTFSDYSMSWYRQAPGKGRELVAIISGSGVIAHYVDSVKGRFTISRDNSKNTVYLQMRSLTPEDRAVYYCRAVSDWDDYWGQGTQVTVSSEPKSSDKTHTCPPCPAPEAAGGPSVFLFPPKPKDTLMISRTPEVTCVVVDVSHEDPEVKFNWYVDGVEVHNAKTKPREEQYNSTYRVVSVLTVLHQDWLNGKEYKCKVSNKALGAPIEKTISKAKGQPREPQVCTLPPSRDELTKNQVSLSCAVKGFYPSDIAVEWESNGQPENNYKTTPPVLDSDGSFFLVSKLTVDKSRWQQGNVFSCSVMHEALHNRFTQKSLSLSP light: EIVLTQSPATLSLSPGERATLSCRASKGVSTSGYSYLHWYQQKPGQAPRLLIYLASYLESGVPARFSGSGSGTDFTLTISSLEPEDFAVYYCQHSRDLPLTFGGGTKVEIKRTVAAPSVFIFPPSDEQLKSGTASVVCLLNNFYPREAKVQWKVDNALQSGNSQESVTEQDSKDSTYSLSSTLTLSKADYEKHKVYACEVTHQGLSSPVTKSFNRGEC | 54.3 nM | 3.9e+06 Lum | 0.01 nM | 6.72e+06 Lum
E-V91T (Fc fusion) heavy 1: EVQLQESGGGLVQPGGSLRLSCTASGLTFSDYSMSWYRQAPGKGRELVAIISGSGVIAHYVDSVKGRFTISRDNSKNTVYLQMRSLTPEDRAVYYCRAVSDWDDYWGQGTQVTVSSGGGGSGGGGSQVQLVQSGVEVKKPGASVKVSCKASGYTFTNYYMYWVRQAPGQGLEWMGGINPSNGGTNFNEKFKNRVTLTTDSSTTTAYMELKSLQFDDTAVYYCARRDYRFDMGFDYWGQGTTVTVSSASTKGPSVFPLAPSSKSTSGGTAALGCLVKDYFPEPVTVSWNSGALTSGVHTFPAVLQSSGLYSLSSVVTVPSSSLGTQTYICNVNHKPSNTKVDKKV[human IgG1 Fc with changes not written out]GGGGSGGGGSGGGGSAPASSSTKKTQLQLEHLLLDLQMILNGINNYKNPKLTEMLTAKFYMPKKATELKHLQCLEEELKPLEEVLNLAQSKNFHLRPRDLISNINTIVLELKGSETTFMCEYADETATIVEFLNRWITFAQSIISTLT heavy 2: EVQLQESGGGLVQPGGSLRLSCTASGLTFSDYSMSWYRQAPGKGRELVAIISGSGVIAHYVDSVKGRFTISRDNSKNTVYLQMRSLTPEDRAVYYCRAVSDWDDYWGQGTQVTVSSGGGGSGGGGSQVQLVQSGVEVKKPGASVKVSCKASGYTFTNYYMYWVRQAPGQGLEWMGGINPSNGGTNFNEKFKNRVTLTTDSSTTTAYMELKSLQFDDTAVYYCARRDYRFDMGFDYWGQGTTVTVSSASTKGPSVFPLAPSSKSTSGGTAALGCLVKDYFPEPVTVSWNSGALTSGVHTFPAVLQSSGLYSLSSVVTVPSSSLGTQTYICNVNHKPSNTKVDKKVEPKSCDKTHTCPPCPAPEAAGGPSVFLFPPKPKDTLMISRTPEVTCVVVDVSHEDPEVKFNWYVDGVEVHNAKTKPREEQYNSTYRVVSVLTVLHQDWLNGKEYKCKVSNKALGAPIEKTISKAKGQPREPQVCTLPPSRDELTKNQVSLSCAVKGFYPSDIAVEWESNGQPENNYKTTPPVLDSDGSFFLVSKLTVDKSRWQQGNVFSCSVMHEALHNRFTQKSLSLSP light: EIVLTQSPATLSLSPGERATLSCRASKGVSTSGYSYLHWYQQKPGQAPRLLIYLASYLESGVPARFSGSGSGTDFTLTISSLEPEDFAVYYCQHSRDLPLTFGGGTKVEIKRTVAAPSVFIFPPSDEQLKSGTASVVCLLNNFYPREAKVQWKVDNALQSGNSQESVTEQDSKDSTYSLSSTLTLSKADYEKHKVYACEVTHQGLSSPVTKSFNRGEC |  | 4.11e+06 Lum | 0.761 nM | 7.6e+06 Lum
